Measured values published in the supplement of paper PMC7826260.
The other results are listed elsewhere or left out. Viral Rep nickase domains cut single-stranded DNA in vitro at 3 µM enzyme and 37 °C for 1 h; the strands have 90 letters, of which the middle is given. Values are log2 of uncut reads against the no-enzyme pool; uncut sequences lie near 0, cut ones below; no hit call is given. The scaling is to total reads; uncut strands gain when others are lost, and binding without cutting may add a little.

tested on: T1, Rep nickase domain of tomato golden mosaic virus; assay: uncleaved DNA left, log2 of reads against the no-enzyme library (log2 ratio); higher = less cleavage (more negative = more Rep cleavage of the k-mer); sequences stand for … in CTCGTCCG…ACCGGAGA
T1 sequence (protein, residues 1-124, tag omitted): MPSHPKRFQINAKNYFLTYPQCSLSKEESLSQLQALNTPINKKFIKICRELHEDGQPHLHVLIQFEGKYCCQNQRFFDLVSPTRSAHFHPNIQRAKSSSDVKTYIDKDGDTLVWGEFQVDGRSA
Procedure: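 A pool of 90-nt single-stranded DNAs with seven random bases just before the constant AC of the nick site (name = the seven bases) was cut by 3 µM recombinant His6-SUMO-tagged Rep nickase domain (300 nM DNA, 50 mM HEPES pH 8.0, 50 mM NaCl, 1 mM MnCl2, 1 h, 37 °C, three replicates). Uncut DNA was amplified and sequenced.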

Row | Sequence | uncleaved DNA left (log2)
1 | GGAGGGG | 0.0456
2 | CATACAT | -0.116
3 | ACAATCT | 0.0923
4 | GGCTTGA | 0.0501
5 | GACATGG | 0.105
6 | CCATATC | -0.193
7 | CCGCTTT | -0.179
8 | CATTTAG | 0.127
9 | GAGCAGC | 0.0488
10 | TACTACT | -2.98
11 | GTGCTTG | -0.0266
12 | GTTCCAG | -0.021
13 | GGGAGTG | -0.0753
14 | AAGGAGC | 0.0809
15 | CGTGCTT | -0.0777
16 | TCAACGA | -0.0173
17 | GTCCAGC | 0.123
18 | TTTGTTG | -0.129
19 | GGACATA | -0.00676
20 | CACCACT | -0.296

Row | Sequence | uncleaved DNA left (log2)
21 | GGAGCAA | 0.0392
22 | CGTATAC | 0.0171
23 | AGACCGT | 0.138
24 | TTCGAGT | -0.0851
25 | GCATGAT | 0.0383
26 | CCCACAT | 0.0113
27 | TGTTAGG | 0.189
28 | TAAGCCC | -0.0332
29 | GGGAACT | -0.0704
30 | ACGATGC | 0.0929
31 | TTCACGG | 0.0695
32 | CTAGTCC | -0.0378
33 | ATTTATC | 0.0367
34 | TCGACAG | -0.0498
35 | GGTGCGT | -0.122
36 | CATCACG | -0.0847
37 | TTTGGGT | -0.0324
38 | CCTTGTT | -0.0496
39 | TCTCTTT | -0.284
40 | GAAAGGG | 0.128
